{"source": "paper PMC5469273", "about": "“Discovery of Novel Small-Molecule Inhibitors of LIM Domain Kinase for Inhibiting HIV-1” (Journal of Virology, 2017)", "key": {"[1]": {"test_system": "HIV-1(AD8)", "assay_type": "cell-based", "details": "washed, 5 days, CD3/CD28 activation"}, "[2]": {"test_system": "HIV 92/BR/018 (Brazil) and HIV 93UG070 (Uganda)", "experiment": "HIV-1 primary isolate infection of PBMC (p24 ELISA)", "details": "100 μM 1 h, infection 3 h, washed, 3 days"}}, "data": [{"smiles": "COC(=O)c1ccc2[nH]c(C3CCN(c4ncnc5[nH]cc(Cl)c45)CC3)nc2c1", "note": "[Compound R10015, Methyl 2-(1-(5-chloro-7H-pyrrolo[2,3-d]pyrimidin-4-yl)piperidin-4-yl)-1H-benzo[d]imidazole-5-carboxylate]", "values": [{"measurement": "R5 HIV latent infection of resting memory CD4 T cells", "setting": "[1]", "value": "dose-dependent inhibition"}, {"measurement": "HIV replication of primary isolates in PBMC", "setting": "[2]", "value": "inhibition"}]}]}
